Values joined by “and” are separate entries in the source; they are usually repeats but may differ in a detail not shown here. Identical values can stand only once. Like-named read-outs stand apart in the source and are kept apart here.
How the values were obtained:
[1] = system: NCI-H460 non-small cell lung cancer cells; assay: cells; conditions: Homo sapiens
[2] = system: T-47D breast cancer cells; assay: cells; conditions: Homo sapiens, T47D; for activity at 100 µM: read-out: Percent Growth, log10 conc -4.0; for activity at 10 µM: read-out: Percent Growth, log10 conc -5.0; for activity at 1 µM: read-out: Percent Growth, log10 conc -6.0; for activity at 0.1 µM: read-out: Percent Growth, log10 conc -7.0; for activity at 0.01 µM: read-out: Percent Growth, log10 conc -8.0
[3] = system: NCI-H460 non-small cell lung cancer cells
[4] = system: T-47D breast cancer cells

Row | SMILES | activity at 100 µM ([1]; NCI-H460, read-out: Percent Growth, log10 conc -4.0) | activity at 10 µM ([1]; NCI-H460, read-out: Percent Growth, log10 conc -5.0) | activity at 0.001 µM ([1]; NCI-H460, read-out: Percent Growth, log10 conc -9.0) | activity at 0.0001 µM ([1]; NCI-H460, read-out: Percent Growth, log10 conc -10.0) | activity at 100 µM [2] | activity at 10 µM [2] | activity at 1 µM [2] | activity at 0.1 µM [2] | activity at 0.01 µM [2] | activity at 0.001 µM ([2]; read-out: Percent Growth, log10 conc -9.0) | activity at 0.0001 µM ([2]; read-out: Percent Growth, log10 conc -10.0) | Percent Growth ([3]; log10 conc -7.0, 0.1 µM) | Percent Growth ([4]; log10 conc -7.0, 0.1 µM) | Percent Growth ([4]; log10 conc -8.0, 0.01 µM) | CC50 ([2]; read-out: LC50) | Percent Growth ([3]; log10 conc -4.0, 100 µM) | Percent Growth ([3]; log10 conc -5.0, 10 µM) | Percent Growth ([3]; log10 conc -6.0, 1 µM) | Percent Growth ([4]; log10 conc -6.0, 1 µM)
1 | COc1cc2c(c(OC)c1OC)-c1ccc(C(C)=O)cc1C(NC(C)=O)CC2 (centres unmarked) | 0% | 2% | 83% | 103% | 72% | 70% | 62% | 65% | 60% | 54% | 96% | 16% | 81% | 47% | – | – | – | – | –
2 | CCCC(=O)NC1CCc2cc(OC)c(OC)c(OC)c2-c2ccc(C(C)=O)cc21 (centres unmarked) | – | – | – | – | 69% and 61% | 65% and 79% | 80% | 73% | 36% | – | – | -3% and 2% | 82% | – | > 100 µM | 0% and 1% | 2% and 0% | 1% and 0% | 75%

Reference: patent publication US5760092A, “Allocolchinones and uses thereof” (Brandeis University, priority 1996, dated 1998)
